Where “and” joins values, the source holds several entries; their conditions need not be identical. Equal entries are not always repeated.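 Tested at 5 concentrations; 48 h exposure; 96-well plates; endpoints linearly interpolated, else capped at highest concentration. GI50: concentration for 50% inhibition of growth. Definition used: TGI = concentration required for complete inhibition of growth.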 Peptide text beside a SMILES is read from it. * marks the point of attachment. Fmoc = O=C(OCC1c2ccccc2-c2ccccc21)*; Boc = CC(C)(C)OC(=O)*
Test system: NCI-H322M lung
Assay: inhibition of tumour cell growth, NCI panel, 48 h

## CC(C)(C)OC(=O)NCCCCC(NC(=O)C(Cc1c[nH]c2ccccc12)NC(=O)OCC1c2ccccc2-c2ccccc21)C(=O)N1CCCC1C(=O)NCC(N)=O (stereo not drawn) (Fmoc-WK(Boc)PG-NH2; configuration not given here)
  TGI: > 100 µM

## CC(=O)[CH-]C(=O)c1ccccc1.CC(=O)[CH-]C(=O)c1ccccc1.C[C@]12CCC(=O)C=C1CC[C@@H]1C2CC[C@@]2(C)C1CC[C@@H]2[O-].C[C@]12CCC(=O)C=C1CC[C@@H]1C2CC[C@@]2(C)C1CC[C@@H]2[O-].Cl.[Ti+4] (stereo partly drawn)
  GI50: 29400 nM
  TGI: > 100 µM

## O=C(CCCl)NNC1=NCCCN1
  TGI: > 100 µM

## O=C(Nc1cccc2c1[nH]c1c(-c3ccccc3)nccc12)c1ccccc1[N+](=O)[O-]
  TGI: > 100 µM

## O=c1ssc(Cl)c1Cl
  TGI: > 10 µM

## O=C(Nc1ccc(/C=C/c2ccc(NC(=O)c3cc(S(=O)(=O)O)c4cccnc4c3O)cc2S(=O)(=O)O)c(S(=O)(=O)O)c1)c1cc(S(=O)(=O)O)c2cccnc2c1O
  GI50: > 55900 nM
  TGI: > 76.6 µM

## CC(=O)c1cc(C(=O)c2ccc3c(c2)Sc2ccccc2N3)c2cc(C)ccn12
  GI50: 207 nM
  TGI: > 100 µM

## Ic1cc2c(cc1C1SCCCS1)OCO2
  TGI: > 100 µM

## Cn1c(=O)c(Oc2ccc(F)cc2F)cc2cnc(NC3CCS(=O)(=O)CC3)nc21
  GI50: > 25000 nM
  TGI: > 25 µM

## CCN(CC)Cc1c(/C=C\c2cc(OC)c(OC)c(OC)c2)ccc(OC)c1O
  TGI: > 100 µM

## O=C1C=CC(=O)c2c1ccc1c3ccccc3n(Cc3cccc([N+](=O)[O-])c3)c21
  TGI: > 100 µM

## c1ccc2c(c1)NC1(N3CCCCC3)CCCCC21 (stereo not drawn)
  TGI: > 100 µM

## CC#CC1C2CCCC1(CSc1ccccc1)NC(=O)O2 (stereo not drawn)
  TGI: > 100 µM

## CC(C)(C)c1cc2c(O)c(c1)Cc1cc(C(C)(C)C)cc(c1O)Cc1cc(C(C)(C)C)cc(c1O)Cc1cc(C(C)(C)C)cc(c1O)Cc1cc(C(C)(C)C)cc(c1O)Cc1cc(C(C)(C)C)cc(c1O)Cc1cc(C(C)(C)C)cc(c1O)Cc1cc(C(C)(C)C)cc(c1O)C2
  TGI: > 50 µM

## O=C1C=CC(=O)c2c1ccc1c3ccccc3n(-c3ccccc3[N+](=O)[O-])c21
  TGI: 32.4 µM

## Cc1nnc(N)nc1/C=C/c1c(O)ccc2ccccc12
  TGI: 77.1 µM

## NCCNCc1c2ccccc2c(CNCCN)c2ccccc12
  TGI: 50.8 µM

## CN(C)c1ccc(/C=C/C2=[N+](C)c3ccccc3C2(C)C)cc1
  GI50: 2140 nM
  TGI: 20.7 µM

## Cc1ccc(S(=O)OCC23CC4CC(CC(C4)C2)C3)cc1 (stereo not drawn)
  TGI: > 100 µM

## Clc1ccc(-c2cc(-c3ccccc3)nc(NCCNc3ccnc4cc(Cl)ccc34)n2)cc1
  GI50: 1650 nM
  TGI: 3.08 µM

## C=C(C(=C)P(=S)(c1ccccc1)c1ccccc1)P(=S)(c1ccccc1)c1ccccc1
  TGI: > 100 µM

## COc1cc(C(=O)N/N=C/c2ccc(N(C)C)cc2)cc(OC)c1OC
  GI50: 904 nM
  TGI: > 100 µM

## Clc1ccc(-c2c(C3=NCCCN3)nnn2-c2ccccc2)cc1
  TGI: > 100 µM

## O=C(CNC(c1ccccc1)(c1ccccc1)c1ccccc1)NC1CCCCC1NC(=O)CNC(c1ccccc1)(c1ccccc1)c1ccccc1 (stereo not drawn)
  TGI: > 100 µM

## CCCCCCCCCCCCOC1C(CNC(=O)C2OC3OC(C)(C)OC3C2NC(=O)Nc2ccc(CC(=O)NC(Cc3ccccc3)C(=O)O)cc2)OC2OC(C)(C)OC21 (stereo not drawn)
  GI50: > 25000 nM
  TGI: > 25 µM

## COc1cc(-c2cc(-c3cc(OC)c(OC)c(OC)c3)nc3nc(N)[nH]c(=O)c23)ccc1Oc1ccnc2cc(Cl)ccc12
  GI50: 3330 nM
  TGI: 34.1 µM

## CS(=O)(=O)CC(=O)c1ccccc1
  TGI: > 100 µM

## O=C(COC(=O)c1cccc2c(=O)c3ccccc3[nH]c12)Nc1ccc(C(=O)O)cc1
  TGI: > 100 µM

## CN1CCN(c2ccc3nc(-c4ccc5nc(-c6ccc(O)cc6)[nH]c5c4)[nH]c3c2)CC1
  GI50: 87000 nM
  TGI: 597 µM

## COc1ccccc1NC(=O)c1nc2ccc([N+](=O)[O-])cc2nc1C
  TGI: > 100 µM

## COC(=O)[C@H](CC(C)C)Nc1c(O)c2c(c(O)c1Cl)C(=O)C=CC2=O
  TGI: > 10 µM

## OCc1c[te]c(-c2ccccc2)c1
  TGI: > 100 µM

## CCOC(=O)c1[nH]cc(C)c1-c1ccc2c(-c3ccccc3)nc3ccccc3n12
  TGI: 25.3 µM

## C1CC[C@H]2SSC3CCCC[C@H]3SSC2C1 (stereo partly drawn)
  TGI: > 100 µM

## COc1cc(C(=O)Nc2cc(OC)c3ccn(C)c3c2)cc2c1C[C@]1(C)CC[C@@H](O)C(C)(C)[C@H]1O2
  GI50: 6910 nM
  TGI: > 100 µM

## O=C1c2ccccc2-c2c1c1ccccc1c(=O)n2CCCNCCCCNCCCN1C(=O)c2ccccc2C2C(=O)c3ccccc3C21 (stereo not drawn)
  GI50: 95 nM
  TGI: 0.617 µM

## COC(=O)C1=C(C(=O)OC)SC2(S1)C(C(=O)OC)=C(C(=O)OC)Sc1c2ssc1=Nc1ccc(Cl)cc1
  TGI: 3.14 µM

## COc1cc(-c2[o+]c3cc(O)cc(O)c3cc2O)cc(O)c1O
  TGI: > 100 µM

## CSc1nc2c(ncn2C2OCC(O)C(O)C2O)c(=O)n1C (stereo not drawn)
  TGI: > 100 µM

## CN(c1cn(C2CC[C@@H](CO)O2)c(=O)[nH]c1=O)C1CCCCC1 (stereo partly drawn)
  TGI: > 100 µM

## O=C1CSC(c2c[nH]c3ccccc23)N1c1ccccc1[N+](=O)[O-] (stereo not drawn)
  TGI: > 100 µM

## CC1CCC2(CC1)NC1=C(CC(C)CC1)C1=C2CC(C)CC1 (stereo not drawn)
  TGI: 79.8 µM

## Nc1cc(=O)n(-c2ccccc2)c(=S)n1-c1ccccc1
  TGI: > 100 µM

## O=C1c2cc([N+](=O)[O-])ccc2-c2ccc3c4ccc5c6c(ccc(c7ccc1c2c73)c64)C(=O)c1cc([N+](=O)[O-])ccc1-5
  TGI: > 100 µM

## Cc1cc(S(=O)(=O)/N=C(/[N-]S(=O)(=O)c2ccc(Cl)cc2)[n+]2ccc(N(C)C)cc2)c(SCC(=O)O)cc1Cl
  TGI: > 100 µM

## CC(=O)OC12COC1CC(O)C1(C)C(=O)C(O)C3=C(C)C(O)CC(O)(C(OC(=O)c4ccccc4)C21)C3(C)C (stereo not drawn)
  TGI: > 100 µM

## COc1cc([C@@H]2C[C@H]2c2cc(SC)n[nH]2)cc(OC)c1OC
  GI50: 29800 nM
  TGI: > 100 µM

## CC(=O)OC1COC(N2C(=O)C(=O)c3cc(Br)ccc32)C(OC(C)=O)C1OC(C)=O (stereo not drawn)
  TGI: > 100 µM

## CCCCCCCCn1ccc2cc(NC(=O)Cn3cc(CN4CCCCC4)nn3)ccc21
  GI50: 1630 nM
  TGI: 3.2 µM

## O=C(O)c1ccc(C(=O)O)c(C(=O)Nc2ccc3c(c2)C(=O)c2ccccc2-3)c1
  TGI: > 100 µM

## O=c1[nH]c(=O)n(C2OC(CO)C(O)C2O)cc1Oc1ccccc1 (stereo not drawn)
  TGI: > 100 µM

## COC(=O)CCC(C)C1CCC2C3C(C[C@H](OC(C)=O)[C@]12C)[C@@]1(C)CCC2(C[C@H]1C[C@H]3OC(C)=O)OOC1(CC[C@]3(C)C4C[C@H](OC(C)=O)[C@]5(C)C(C(C)CCC(=O)OC)CCC5C4[C@H](OC(C)=O)C[C@@H]3C1)OO2 (stereo partly drawn)
  TGI: > 100 µM

## CN1C/C=C/CCOc2cccc(c2)-c2ccnc(n2)Nc2cccc(c2)C1
  GI50: 42.9 nM
  TGI: 0.805 µM

## CCOC(=O)C(C(=S)SC)c1nn2c(=O)cc(C)nc2s1 (stereo not drawn)
  TGI: 39.1 µM

## CSC12c3cc(C)n(-c4ccccc4)c3CC(C)(C)CN1C(=O)C2Oc1ccccc1 (stereo not drawn)
  TGI: > 100 µM

## CCNC(=O)O/N=C1\CCC2[C@@H]3CC=C4C[C@@H](OC5CCCCO5)CC[C@]4(C)C3CC[C@]12C (stereo partly drawn)
  TGI: 19.9 µM

## Cc1ccc(S(=O)c2sccc2C=O)cc1 (stereo not drawn)
  TGI: > 100 µM

## CCN(CC)C1CCC(Nc2c(C(C)=O)cnc3ccc(-c4ccc(O)c(Cl)c4)cc23)CC1 (stereo not drawn)
  GI50: 620 nM
  TGI: 17.3 µM

## O=C(O)C12CCCCC1CCCC2 (stereo not drawn)
  TGI: > 100 µM

## COC(=O)C1=C(C)C=C(N2CCOCC2)C(C(=O)OC)C1c1ccccc1 (stereo not drawn)
  TGI: > 10 µM

## CSc1ncc2c(n1)sc1c(=O)n(-c3ccccc3)cnc12
  TGI: > 100 µM

## COc1ccc2cc(-c3nc(N)nc(N4N=C(C)CC4(C)C)n3)c(=N)oc2c1
  TGI: 56.7 µM

## Fc1ccc(-c2sc(-c3cccs3)cc2Cc2cccs2)cc1
  TGI: > 100 µM

## COC(=O)C(Cc1nc2ccccc2nc1C)/C(=N\NC(N)=O)C(=O)Nc1cccc([N+](=O)[O-])c1 (stereo not drawn)
  TGI: > 100 µM

## O=S(=O)(/N=c1/scc(-c2ccccc2)n1-c1ccccc1)c1ccc(N2N=C3c4ccccc4CC3C2c2cccs2)cc1 (stereo not drawn)
  GI50: 31400 nM
  TGI: 83.7 µM

## Cc1ccc(Cl)c(Nc2ccccc2C(=O)O)c1Cl
  GI50: 36900 nM
  TGI: > 100 µM

## COC1OC(COC(=O)c2cc(O)c(O)c(O)c2)C(OC(=O)c2cc(O)c(O)c(O)c2)C(OC(=O)c2cc(O)c(O)c(O)c2)C1OC(=O)c1cc(O)c(O)c(O)c1 (stereo not drawn)
  TGI: > 100 µM

## O=C(NCCNCCCNC(=O)c1cc(-c2ccccc2)nc2ccccc12)c1cccc(OCc2ccccc2)c1OCc1ccccc1
  TGI: 3.25 µM

## Cc1c(O)c2c(c(O)c1Br)C(=O)C=CC2=O
  GI50: 1960 nM
  TGI: 2.98 µM and 3.67 µM

Source: PubChem BioAssay (NCI)
